Measured values: PMC12136788
Residue numbers refer to the chain shown, from its start. This is one part of the list.

T1: UNK ZnF1-3 (human, UniProt Q9C0B0 31-174)
T1 sequence: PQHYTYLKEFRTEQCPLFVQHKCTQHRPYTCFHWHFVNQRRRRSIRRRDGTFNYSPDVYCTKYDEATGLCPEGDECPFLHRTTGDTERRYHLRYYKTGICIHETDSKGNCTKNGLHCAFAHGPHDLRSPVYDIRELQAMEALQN

B1: chr11:87793471:87793472:-_ENSMUSG00000020483_ENSMUST00000020775|mus_mus|mus_mus_mus_hu_False|8_28 (ssRNA)
RNA: GGGAGUUCUACAGUCCGACGAUCUGGACUUGAAAAUAAAAGAAUAAGCUGGAUCCCCCACCCCCCCACAUUGUCAACCCUACACGAGAGUUUUGAAGGCGACUCAUGAAUCAGCAGAGCUCAAACGAAUGACAACCCCCCACCCAACAGAGGAUUGAGCAUCA
B2: chr14:76907486:76907487:+_ENSMUSG00000022010_ENSMUST00000022587|mus_mus|motif|central (ssRNA)
RNA: GGGAGUUCUACAGUCCGACGAUCACAAGUAGAACAGGUAAAUACAGUGGGGACUGUGUGGGGGACAUGCGCAGAACGACGGUACAGGUGAGGUGCAGAAACCCCUACUGGGAAAUCCACUUCCUUAGCAACUGACCACUUCUCCAACAGAGGAUUGAGCAUCA
B3: chr1:110565788:110565789:+_ENSG00000168710_ENST00000369799|hu_mus|FALSE|FALSE (ssRNA)
RNA: GGGAGUUCUACAGUCCGACGAUCAUUCUGUCUUUAAUGCCUGUUUCUCUGAUCAGUGGAAAGAGAGAAGUAAACAUUUCUAGUACCUAUCAUUAACACAUAACCCAUCUUUGAAGGAUCACAAGCUAGAACACGUUGAGGACUCAACAGAGGAUUGAGCAUCA
B4: chr11:77336104:77336105:-_ENSG00000074201_ENST00000525064|hu_mus|hu_hu_hu_mus_False|48_48 (ssRNA)
RNA: GGGAGUUCUACAGUCCGACGAUCCUCACACAUUGCUGUGAACAUCGCCUCCAAUGCUGACUUAUCACUGGGCACAAAUCGAAAUUCAGUAAUAGGUUCAACAUCAUCAUUGUCUUCCUCAUCUUCAUCAGAGAGAGGUUCUUUCAACAGAGGAUUGAGCAUCA
B5: chr11:77336104:77336105:-_ENSG00000074201_ENST00000525064|hu_mus|hu_hu_hu_mus_False|28_88 (ssRNA)
RNA: B4 RNA with U54C, U89A, A93G, U110C, G111A, U112C, C113U, U114G
B6: chr2:29001751:29001752:+_ENSG00000213639_ENST00000296122|perfect_dup|motif|central (ssRNA)
RNA: GGGAGUUCUACAGUCCGACGAUCAGCCAAUAGCAAACAGAUGGUUUCCAAAGACUGCUUUCCUCUGUCCACAUAAUCUCCGGAGAAAAGAUAGUUGGCUUCUGGUGGAAAACCUCCAUAUUCAAAUAAUCUUAGUAAGUCUGUCAACAGAGGAUUGAGCAUCA
B7: chr3:39104626:39104627:+_ENSG00000114742_ENST00000302313|hu_hu|FALSE|FALSE (ssRNA)
RNA: GGGAGUUCUACAGUCCGACGAUCGUGCUGAUUGACACUCCAUAUUCUUAUGAUAGAGUCUCGACCGGCUGUGAAAAGUCUAUUUAGUGCUGGAUCCAGCUGCAGAGCAUUGACUCCAUUUCGGUUGUACUUCUCCACUUCAUCCAACAGAGGAUUGAGCAUCA
B8: chrX:148277548:148277549:+_ENSMUSG00000025261_ENSMUST00000112622|mus_hu|FALSE|FALSE (ssRNA)
RNA: GGGAGUUCUACAGUCCGACGAUCGAGGACUGCCAGCACCACUUGCAUAUCAGAGGAAGCCAAUAAAGUUGUCAAAUGCUCUAUGGAACUGUACAGAUGCCGGGAAAAGCUGUACUCAAUGAGCAAGGCUGUGAAGUUCAACACCAACAGAGGAUUGAGCAUCA
B9: chr16:23113652:23113653:+_ENSMUSG00000022884_ENSMUST00000115341|mus_hu|FALSE|FALSE (ssRNA)
RNA: GGGAGUUCUACAGUCCGACGAUCCCACAAGUAUAUUAUUAAAUGAUAGAGAACAUCUAAUACAACCAUUUCUACAGAACUAGGAAAUAAAUUUCUAAGAAAGAAAGAUUUUACAGACCCCAUCUUUUAUACCCACCCCAACAGCAACAGAGGAUUGAGCAUCA
B10: chr3:196555327:196555328:+_ENSG00000180370_ENST00000327134|hu_hu|FALSE|FALSE (ssRNA)
RNA: GGGAGUUCUACAGUCCGACGAUCUUCAGGUUAUGCAGACCAUUUCUUUAAACCCCAAAAAGAGUAAUAAUUUUCAUAUACUAAAAGGCUUCUUGUAGAAAAUGGAAAAAAGAGUAUGAGGCCACAGCAGUGAUGUUAACGGUUCAACAGAGGAUUGAGCAUCA
B11: chrX:71549400:71549401:+_ENSMUSG00000019087_ENSMUST00000019231|mus_hu|mus_mus_mus_hu_False|68_68 (ssRNA)
RNA: GGGAGUUCUACAGUCCGACGAUCGCAGUAGGAAGAGGGAAGCUCUUCAGUCCAGUGCGCUGCAGGGAGAAACAUGAACAACACGGACACCGUCCCACCCUCAACCCCCCCACUGGCACAGGGUCACACAAUCUGGGUCAAAGACAACAGAGGAUUGAGCAUCA
B12: chr19:8913615:8913616:-_ENSMUSG00000071658_ENSMUST00000096259|mus_hu|mus_mus_mus_hu_False|1_48 (ssRNA)
RNA: GGGAGUUCUACAGUCCGACGAUCAGGGUACCAAAACCUUCUGCCUGAAAUGGGUGCCCCACCCAGUAGGGAGUUGCAGCUGAAAGUAUCCGUAGCAGAAGCAGUGACUAUACGAAAGGAGGCCCCUGGGGAGGGCCCGAGAUCCAACAGAGGAUUGAGCAUCA
B13: 100204454_100204574_1612_CDS_ENSG00000125304_ENST00000376387|human|control|control (ssRNA)
RNA: GGGAGUUCUACAGUCCGACGAUCCUUAAAACCAAAGUAUGCACCAAUAAACGUCAGAGGCACAGAUAUGCAGAACCAAAGGGCCAAUAUGGCAACCAGUGUCCCAAAAGGAAUAGCUGCUGAAGAUCCUUCUCCCCAGAGGAUCAACAGAGGAUUGAGCAUCA
B14: chr4:95585729:95585730:+_ENSG00000163110_ENST00000317968|hu_mus|motif|central (ssRNA)
RNA: GGGAGUUCUACAGUCCGACGAUCAAAGGUAAGACCAAUGAUAAGAGCAAAGCAAGUACACUCACUAAACAGAAAAGUUACUGCCGGCUCAUAAAAUUUAUUUAGAUUUCUACUUACUAUUUUAAAGAUAAAAUGGUUUUAUUACAACAGAGGAUUGAGCAUCA

What follows are binders tested against T1, UNK ZnF1-3 (assay: nsRBNS (natural sequence RNA bind-n-seq); RBNS binding buffer (assumed for nsRBNS): 25 mM Tris pH 7.5, 150 mM KCl, 3 mM MgCl2, 0.01% Triton X-100, 500 ug/ml BSA, 20 U/ml SUPERase-In, 4 C; UNK is unkempt and MSI1 is Musashi-1; names of the RNAs are library labels; protein concentration not given here; high values mean tight binding).
B1 showed a binding signal of 1.58 enrichment R. B2 was tested, and the binding signal was 1.08 enrichment R. With B3 the binding signal was 1 enrichment R. Work on B4 yielded a binding signal of 0.789 enrichment R. Work on B5 yielded a binding signal of 1.25 enrichment R. Binder B6 has a binding signal of 1.36 enrichment R. Binder B7 has a binding signal of 0.659 enrichment R. B8 showed a binding signal of 2.05 enrichment R. In the case of B9, the binding signal is reported as 1.82 enrichment R. Binder B10 has a binding signal of 1.38 enrichment R. In the case of B11, the binding signal is reported as 1.92 enrichment R. In the case of B12, the binding signal is reported as 1.41 enrichment R. For B13, the binding signal was 1.55 enrichment R. B14 was tested, and the binding signal was 1.88 enrichment R.
